Assay results reported in PubChem BioAssay (NCATS).
Inconclusive means that the source gave no clear call. Such entries were picked first, then a sample of the others. A potency beside an inconclusive call is a rough fit, not a confirmed value. The source made the active and inactive calls. Calls come from the whole dose curve; as a rule, active = well fitted curve in the direction sought with a large enough effect; inconclusive = small, poorly fitted or top-dose-only effect, or another doubt; inactive = no such curve, though single readings can be large; an effect the other way counts as inactive or inconclusive.

Assays:
[1] = qHTS of pediatric cancer cell lines to identify multiple opportunities for drug repurposing: Primary screen for RD cells (AID 1347104); note: nearly all actives have a fitted effect of over 55% in size
Procedure, shortened: (§1)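 CRCs from 8- or 11-point titrations (lowest final 0.59 nM NPC, 0.78 nM MIPE). Cell viability: CellTiter-Glo after 48 h incubation, 15 min room-temperature development, luminescence imaging.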

[2] = qHTS of pediatric cancer cell lines to identify multiple opportunities for drug repurposing: Primary screen for MG 63 (6-TG R) cells (AID 1347105); conditions: MG 63 (6-TG R) viability, CellTiter-Glo, 48 h; activity change, negative = cytotoxic: at 46 µM (top of the series) unless noted; note: nearly all actives have a fitted effect of over 50% in size
Procedure, shortened: as §1

[3] = qHTS of pediatric cancer cell lines to identify multiple opportunities for drug repurposing: Primary screen for Rh30 cells (AID 1347107); note: nearly all actives have a fitted effect of over 75% in size
Procedure, shortened: (§2)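 Cells (500-1,000/well) in growth media were settled 5 h at 37 degrees C, then given compounds for 48 h. Viability was read as CellTiter-Glo luminescence. Primary runs used MIPE at 11 points (0.78 nM-46 µM) and NPC at 8 points (0.59 nM-46 µM); follow-ups used 11 points.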

[4] = qHTS of pediatric cancer cell lines to identify multiple opportunities for drug repurposing: Primary screen for Rh41 cells (AID 1347108); note: nearly all actives have a fitted effect of over 70% in size
Procedure, shortened: as §1

[5] = qHTS of pediatric cancer cell lines to identify multiple opportunities for drug repurposing: Primary screen for control Hh wild type fibroblast cells (AID 1347106); note: nearly all actives have a fitted effect of over 55% in size
Procedure, shortened: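 Viability after 48 h compound treatment at 37C, 500-1,000 cells/well, read as ATP luminescence with CellTiter-Glo. Primary screens used 11-point (MIPE, 0.78 nM-46 µM) or 8-point (NPC, 0.59 nM-46 µM) final concentrations; follow-up screens used 11-point dilutions.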

[6] = qHTS of pediatric cancer cell lines to identify multiple opportunities for drug repurposing: Confirmatory screen for NB1643 cells (AID 1347109); conditions: NB1643 neuroblastoma cell viability; activity change, negative = cytotoxic: at 45.9 µM (top of the series) unless noted; note: nearly all actives have a fitted effect of over 45% in size
Procedure, shortened: as §2

[7] = qHTS of pediatric cancer cell lines to identify multiple opportunities for drug repurposing: Confirmatory screen for SK-N-MC cells (AID 1347111);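 note: cells exposed to compound for 48 h before the readout; nearly all actives have a fitted effect of over 70% in size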
Procedure, shortened: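 Metabolically active cells were quantified by ATP-dependent luminescence (CellTiter-Glo, 15 min at room temperature) following 48 h treatment. Cells had been plated at 500-1,000 per well and settled for 5 h beforehand.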

[8] = qHTS of pediatric cancer cell lines to identify multiple opportunities for drug repurposing: Confirmatory screen for BT-12 cells (AID 1347112); note: nearly all actives have a fitted effect of over 55% in size
Procedure, shortened: as §2
Potency is the fitted concentration of half-maximal effect; tags give direction and shape of the fitted curve.

Compound | Potency [1] | Potency [2] | Potency [3] | Potency [4] | Potency [5] | Potency [6] | Potency [7] | Potency [8]
O=C1C=CC[C@@H]2[C@H]3CCCN4CCC[C@@H](CN12)[C@@H]34 | inconclusive: 18.7 µM [cytotoxic, partial curve, poor fit] | inconclusive: 23.5 µM [cytotoxic, single point] | inconclusive: 20.9 µM [cytotoxic, partial curve] | inconclusive: 20.9 µM [cytotoxic, partial curve] | – | – | – | –
Cc1c(N)nc([C@H](CC(N)=O)NC[C@@H](N)C(N)=O)nc1C(=O)N[C@H](C(=O)N[C@@H](C)[C@H](O)[C@@H](C)C(=O)N[C@@H](C(=O)NCCc1nc(-c2nc(C(=O)NCCC[S+](C)C)cs2)cs1)[C@@H](C)O)C(O[C@H]1O[C@H](CO)[C@H](O)[C@@H](O)[C@@H]1O[C@H]1O[C@H](CO)[C@@H](O)[C@H](OC(N)=O)[C@H]1O)c1cnc[nH]1 (stereo partly drawn) | inconclusive: 2.09 µM [cytotoxic, full curve] | active: 0.59 µM | – | – | inconclusive: 11.8 µM [cytotoxic, partial curve, poor fit] | inconclusive: 0.0074 µM [rising, full curve, poor fit] | inconclusive: 26.1 µM [cytotoxic, single point] | inconclusive: 32.9 µM [cytotoxic, single point]
CN1C(=O)[C@@H](NC(=O)c2cc3ccccc3[nH]2)N=C(c2ccccc2)c2ccccc21 | inconclusive: 11.9 µM [cytotoxic, partial curve] | inactive | – | inconclusive: 10.6 µM [cytotoxic, partial curve, poor fit] | – | – | – | –
